Screen size: about 310,000 compounds; about 2,200 (0.71%) showed an effect of 50% or more. Effects have a minus sign here. Some of the results follow.

The target of this test is human ether-à-go-go-related gene (hERG) potassium channel (human, UniProt Q12809). Put plainly: primary screen, population patch clamp on CHO cells stably expressing hERG.
Sequence of human ether-à-go-go-related gene (hERG) potassium channel (Q12809 whole entry, looked up): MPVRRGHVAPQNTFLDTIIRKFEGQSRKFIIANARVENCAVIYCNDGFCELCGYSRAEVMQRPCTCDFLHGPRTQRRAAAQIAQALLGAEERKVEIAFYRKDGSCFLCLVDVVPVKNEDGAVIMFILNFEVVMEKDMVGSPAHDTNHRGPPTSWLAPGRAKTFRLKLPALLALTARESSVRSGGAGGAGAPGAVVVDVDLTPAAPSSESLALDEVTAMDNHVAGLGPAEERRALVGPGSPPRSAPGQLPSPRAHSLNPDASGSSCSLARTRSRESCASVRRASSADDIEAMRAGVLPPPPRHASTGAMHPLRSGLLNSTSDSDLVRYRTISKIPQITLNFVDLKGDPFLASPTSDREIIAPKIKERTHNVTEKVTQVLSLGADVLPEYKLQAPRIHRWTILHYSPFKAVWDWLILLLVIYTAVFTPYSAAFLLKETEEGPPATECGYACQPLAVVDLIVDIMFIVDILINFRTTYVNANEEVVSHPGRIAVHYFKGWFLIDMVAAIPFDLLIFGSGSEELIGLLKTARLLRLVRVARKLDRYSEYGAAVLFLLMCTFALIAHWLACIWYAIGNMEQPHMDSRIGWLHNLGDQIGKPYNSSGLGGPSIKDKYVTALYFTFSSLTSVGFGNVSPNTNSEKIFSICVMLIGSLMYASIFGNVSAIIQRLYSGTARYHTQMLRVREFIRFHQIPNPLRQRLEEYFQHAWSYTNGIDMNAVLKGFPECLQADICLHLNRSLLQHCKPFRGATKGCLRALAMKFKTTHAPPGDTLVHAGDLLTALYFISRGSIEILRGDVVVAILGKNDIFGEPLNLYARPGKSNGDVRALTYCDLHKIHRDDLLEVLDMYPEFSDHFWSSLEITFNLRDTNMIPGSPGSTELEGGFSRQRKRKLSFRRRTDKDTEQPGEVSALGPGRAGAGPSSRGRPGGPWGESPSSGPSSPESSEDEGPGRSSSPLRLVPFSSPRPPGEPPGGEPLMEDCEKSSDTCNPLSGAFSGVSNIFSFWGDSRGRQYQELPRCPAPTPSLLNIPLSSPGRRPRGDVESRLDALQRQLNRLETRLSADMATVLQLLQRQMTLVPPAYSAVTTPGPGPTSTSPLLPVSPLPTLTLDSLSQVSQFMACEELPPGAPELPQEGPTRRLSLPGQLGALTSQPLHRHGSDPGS
In the case of `CN1CCN(c2ccc([N+](=O)[O-])cc2NC(=O)c2ccccc2Cl)CC1`, the “hERG current change (%, negative = inhibition) at 1uM” value is recorded as -75.6%. Regarding `O=C(NCC(=O)N(c1ccc(Cl)cc1)C(C(=O)NC1CCCC1)c1ccncc1)c1ccco1` (stereo not drawn), the “hERG current change (%, negative = inhibition) at 1uM” value is 5.8%. As to `COc1ccccc1NC(=S)N1CCN(c2ccc(F)cc2)CC1`, the “hERG current change (%, negative = inhibition) at 1uM” value was 8.76%.

Consider `C/C(=N\NC(=O)c1cccc(Br)c1)c1cccc(NC(=O)c2ccc(C)o2)c1`, for which the “hERG current change (%, negative = inhibition) at 1uM” value is reported as 2.01%. `COc1ccc(-c2[nH]ncc2CN(Cc2nccn2C)C(C)C)c(F)c1`: the “hERG current change (%, negative = inhibition) at 1uM” value is on record as -6.67%. Regarding `Cc1cc([N+](=O)[O-])ccc1NC(=O)CCC(=O)N1CCCCC1`, the “hERG current change (%, negative = inhibition) at 1uM” value is on record as -3.85%.

As for `CC(C)(C)n1nc2c(c1NC(=O)c1cc([N+](=O)[O-])ccc1Cl)CS(=O)(=O)C2`, the “hERG current change (%, negative = inhibition) at 1uM” value was determined as 14.4%.

In the case of `C/C=C/COc1nc2c(c(=O)n(C)c(=O)n2C)n1C`, the “hERG current change (%, negative = inhibition) at 1uM” value is given as 13.8%. In the case of `CCOc1ccc(C(c2c(C)n(C)n(-c3ccccc3)c2=O)c2c(C)n(C)n(-c3ccccc3)c2=O)c(O)c1`, the “hERG current change (%, negative = inhibition) at 1uM” value stood at 20.3%.

As for `Cl.OCCN1CCN(CCOc2cccc(Cl)c2)CC1`, the “hERG current change (%, negative = inhibition) at 1uM” value was 1.81%. Regarding `CCOc1ccc(C(=O)N2CCCCCC2)cc1`, the “hERG current change (%, negative = inhibition) at 1uM” value is listed as 9.17%.

For `O=C(c1ccc(COc2ccc(Cl)cc2)o1)N1CCN(Cc2ccc3c(c2)OCO3)CC1`, the “hERG current change (%, negative = inhibition) at 1uM” value stood at 7.98%. Take `O=C(O)c1ccccc1CSc1nc2ccccc2[nH]1`: the “hERG current change (%, negative = inhibition) at 1uM” value is on record as 13.2%. As for `COc1ccc(CNC(=O)COC(=O)CCOc2ccccc2)cc1`, the “hERG current change (%, negative = inhibition) at 1uM” value came to 11.2%.

For the compound `O=c1c2ccccc2nc(-c2ccc([N+](=O)[O-])cc2)n1O`, the “hERG current change (%, negative = inhibition) at 1uM” value is reported as 9.22%. Consider `CCCc1cc(C(=O)NCc2ccccc2)no1`, for which the “hERG current change (%, negative = inhibition) at 1uM” value came to 6.07%. For the compound `COc1ccc(-c2[nH]c(-c3ccccc3)nc2SCC(=O)Nc2nccs2)cc1`, the “hERG current change (%, negative = inhibition) at 1uM” value was -0.692%. In the case of `O=C(/C=C/c1cccc(Cl)c1)NCCCN1CCOCC1` it was 22.7%; in that of `Cc1cccc(-n2c(-c3csc4ccccc34)n[nH]c2=S)c1`, 1.64%; in that of `COc1ccc(C)cc1S(=O)(=O)NC1CCCC1`, 9.56%. In the case of `COc1ccc(C(C)NC(=O)C2CCCC2)cc1` (stereo not drawn) it was 11.5%.

In the case of `CN(C)/C=N/c1nc2nccc(-c3ccc(F)cc3)n2n1`, the “hERG current change (%, negative = inhibition) at 1uM” value is recorded as 13.1%. Take `COc1ccc(CNC(=O)COC(=O)c2ccccc2OCC(=O)Nc2ccc(SC(F)F)cc2)cc1`: the “hERG current change (%, negative = inhibition) at 1uM” value was 3.83%.

As for `Cc1ccccc1Oc1nc2c(C)cccn2c(=O)c1/C=C(\C#N)C(=O)NC1CCS(=O)(=O)C1` (stereo not drawn), the “hERG current change (%, negative = inhibition) at 1uM” value is 2.94%.

The values are drawn from PMC4336329 (PLoS ONE, 2015).
